Values belong to the compound of their own block, whether it stands above or below them. Where no end group is shown, it is not given here.
Columns and labels:
IgM58 = assay: ELISA IgM-binding competition, polyspecific IgM58; parameters: species or system Balb/c mice; settings: FIG. 2E
natural IgM = assay: ELISA: inhibition of natural IgM (Nab) binding to W-determinants by indole compounds; settings: in vitro, compound added into the incubation medium
IgM60 = assay: ELISA IgM-binding competition, polyspecific IgM60; parameters: species or system Balb/c mice; settings: FIG. 2F
MRL/1pr mice = assay: In vivo experiments: IPA in drinking water of autoimmune mice
Description: In vivo experiments. Female LRL/1rp mice were receiving either normal water or 20 mM IPA (pH ˜7) starting from the age of 5 weeks. Mice were killed at the age of 22 weeks and their lymph nodes, spleens and kidneys were weighed and subjected to histological analysis.

[1] = tested on: spleen and peritoneal B cells; assay: ELISPOT of B cells on phage-displayed W determinants; assay type: cell-based, Balb/c mice
Description: ELISPOT. Spleen and peritoneal washout were prepared using 10-12 wk-old Balb/c mice and B cells were isolated using the StemCell Technologies protocol and reagents. Isolated B cells were suspended in 10% FBS/DMEM and incubated overnight in a 96-well polypropylene plate containing indolylpropionic acid (IPA) solution at 0.625 mM −2.5 mM at 37° C. in the presence of 5% CO2. The cells were transferred into a phage- or anti-IgM antibody-coated ELISPOT plate (Millipore MltiScreenHTS), at 200-15000 cells per well, and incubated overnight at 37° C. in the presence of 5% CO2. Coating phage and goat anti-mouse IgM antibody (positive control) were used at 10^11 pfu/ml and 10 μg/ml, respectively. Phage clones displaying W determinants and control peptids lacking Trp residues were used. Coating was allowed to proceed overnight with gentle rocking. Next day, plates were blocked, washed and seeded with cells. LPS-stimulated spleen and peritoneal B cells were prepared by incubating cells in 10% FBS/DMEM containing 10 μg/ml LPS for 24, 48 and 72 hours (10^6 cells/ml). Stimulated cells were transferred into ELISPOT plates (200-15000 cells/wells). ELISPOT plates were processed as follows. After discarding the well media, plate were washed once with H2O and then 6 times with 0.05% Tween-20 in TBS and incubated with biotin-labeled anti-mouse IgM antibody in 1% BSA/TBS. […]

[2] = peptide devoid of TP determinant

Compound: CC(=O)N[C@@H](Cc1c[nH]c2ccccc12)C(=O)O [N-acetyl-tryptophan]
inhibition of IgM binding to W-determinants (natural IgM): inhibited

Compound: N[C@@H](Cc1c[nH]c2ccccc12)C(=O)O [tryptophan, reference compound]
inhibition of IgM binding to W-determinants (natural IgM): no effect

Compound: O=C(O)CCc1c[nH]c2ccccc12 [IPA, indole-3-propionic acid]
development of autoimmunity (MRL/1pr mice; 20 mM IPA instead of water): prevents
development of lymphoproliferation (MRL/1pr mice; IPA added to drinking water): prevents
appearance of IgG antibodies reacting with W determinants (MRL/1pr mice; adult mice, IPA in drinking water): prevents
B-cell secretion of Nabs in ELISPOT [1]: suppresses
reduction of the number of cells binding to W determinants ([1]; 2.5 mM IPA in the medium): 70-80%

More lines, now with the values ahead:

inhibition of IgM58 binding to TNP(14)-BSA (IgM58): moderately
inhibition of IgM58 binding to myosin (IgM58): completely inhibited
inhibition of IgM58 binding to thyroglobulin (IgM58): completely inhibited
inhibition of IgM58 binding to T7-ARTRL (IgM58; [2]): completely inhibited
inhibition of IgM58 binding to T7-RYIGK (IgM58; [2]): completely inhibited
Compound: Ac-RLTPR [synthetic peptide with TP-determinant, reacts with IgM58]

reduction of IgM60 binding to DNP(10)-BSA (IgM60): significantly reduced
reduction of IgM60 binding to PC(15)-BSA (IgM60): significantly reduced
reduction of IgM60 binding to TNP(14)-BSA (IgM60): significantly reduced
inhibition of IgM60 binding to peptide PERVF (IgM60; peptide devoid of L-determinant): completely inhibited
Compound: Ac-DGA-DLLDR

inhibition of IgM binding to W-determinants (natural IgM; listed as trans-3-indoleacrylic acid): at least as effectively as IPA
Compound: O=C(O)C=Cc1c[nH]c2ccccc12 [indole-3-acrylic acid]

Reference: patent US20100004180A1, “Agents for the Detection and Modulation of B-Cells and Antibodies” (priority 2008, published 2010)
